# PubChem BioAssay AID488969 (Vanderbilt High Throughput Screening Facility, 2010)
# Whole data set: some 110,000 compounds, median “z-score” near -0.1, cut for the highest 2% near 2. The list shows a part of the results. The source made the active and inactive calls.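 Rule for the calls: active = z-score in the third read window above 3 or below -3; inactive = the rest.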
# Molecular target: Metabotropic glutamate receptor 8 (Rattus norvegicus) (UniProt P70579)
# Test: rat mGluR8 modulators via GIRK flux, primary screen, cell-based, thallium flux, HTS (AID 488969)
# Conditions: HEK293 rat mGluR8, GIRK (G protein-gated inwardly rectifying potassium channel) thallium flux, FluoZin2; at 10 µM; stronger effect = higher value; submaximal glutamate (EC20) added with thallium
# Sequence of UniProt P70579 (P70579 whole entry, looked up): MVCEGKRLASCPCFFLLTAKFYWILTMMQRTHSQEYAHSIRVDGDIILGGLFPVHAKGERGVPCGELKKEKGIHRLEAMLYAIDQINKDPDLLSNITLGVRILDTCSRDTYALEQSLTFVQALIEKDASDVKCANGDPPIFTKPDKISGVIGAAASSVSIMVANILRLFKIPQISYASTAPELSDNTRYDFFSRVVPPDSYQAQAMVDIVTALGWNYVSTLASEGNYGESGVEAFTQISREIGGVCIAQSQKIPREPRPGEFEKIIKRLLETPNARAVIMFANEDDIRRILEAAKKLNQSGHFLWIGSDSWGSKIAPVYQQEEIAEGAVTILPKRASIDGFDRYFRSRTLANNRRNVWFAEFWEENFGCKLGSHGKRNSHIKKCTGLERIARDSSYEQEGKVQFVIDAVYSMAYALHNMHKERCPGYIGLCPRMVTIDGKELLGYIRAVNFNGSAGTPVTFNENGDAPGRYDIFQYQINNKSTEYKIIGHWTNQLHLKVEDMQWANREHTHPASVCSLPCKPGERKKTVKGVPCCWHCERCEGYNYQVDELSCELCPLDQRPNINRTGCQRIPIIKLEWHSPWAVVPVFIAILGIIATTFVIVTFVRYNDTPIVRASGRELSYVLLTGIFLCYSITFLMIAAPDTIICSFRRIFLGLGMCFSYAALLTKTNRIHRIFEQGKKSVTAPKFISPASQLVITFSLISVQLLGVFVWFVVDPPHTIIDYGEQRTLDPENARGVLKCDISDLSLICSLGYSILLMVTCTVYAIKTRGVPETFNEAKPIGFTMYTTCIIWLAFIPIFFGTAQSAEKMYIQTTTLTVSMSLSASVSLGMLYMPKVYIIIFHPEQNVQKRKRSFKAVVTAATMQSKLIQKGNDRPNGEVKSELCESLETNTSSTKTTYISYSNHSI
row,SMILES,z-score
1,CCOc1ccc(C2=C(C=Nc3c(C)n(C)n(-c4ccccc4)c3=O)C(c3ccc(F)cc3)c3ccccc3O2)cc1 (stereo not drawn),1.53
2,COc1cc(C)c(CNc2cccc(C)c2)cc1C,-0.167
3,CCCCSC1(SCCCC)N=C(N)C2(C#N)C(c3ccccc3)NC(C)=CC12C#N (stereo not drawn),0.584
4,CC(C)(C)C1CCC(OC(=O)CN2CCOCC2)CC1 (stereo not drawn),0.247
5,CC(=O)NC1CC2CCCC(C1)N2C(=O)Nc1ccccc1 (stereo not drawn),0.0058
6,Cc1cc(C)cc(OCC(=O)OCCN2C(=O)c3ccccc3C2=O)c1,-0.436
7,O=C(N/N=C/c1ccc2cccc(OCc3ccccc3)c2n1)c1ccc(Br)cc1,active: 3.65
8,Cc1cc(NC(=O)CCC(=O)N(CC2CCCO2)C(C(=O)NC2CCCC2)c2cccnc2)no1 (stereo not drawn),-0.847
9,COc1ccc(C)cc1NC(=O)C(CCS(C)(=O)=O)NC(C)=O (stereo not drawn),0.425
10,CC(C)NC(=O)CSCc1c(Cl)cccc1Cl,-0.342
11,COc1ccc(NCc2nnc(SCC(=O)N3CCCc4ccccc43)o2)cc1,0.966
12,COc1ccc(C(=O)Nc2nncs2)c(OC)c1,-0.284
13,CCCOc1ccc(OCCNC2CCCC2)cc1,-0.38
14,CC(C)CC1(C(=O)O)NC(c2ccccc2O)C2C(=O)N(C(C)C)C(=O)C21 (stereo not drawn),0.0479
15,CCN1CCCC1CNC(=O)CCc1nc(-c2ccc(C)cc2)no1 (stereo not drawn),0.135
16,O=C(COc1ccc(-c2ccccc2)cc1)N1CCN(S(=O)(=O)Cc2ccccc2)CC1,-0.348
17,CC(C1CC1)N(C(=O)NC1CCS(=O)(=O)C1)c1ccccc1 (stereo not drawn),-0.27
18,COc1ccc2nc(C(C)O)[nH]c2c1 (stereo not drawn),0.0783
19,Fc1ccccc1CSc1nnc(-c2cnccn2)n1Cc1ccco1,-0.613
20,COc1cc(NS(=O)(=O)c2ccc(NC(=S)NC(=O)c3sc4cc(F)ccc4c3Cl)cc2)nc(OC)n1,-0.162
21,CN(C)S(=O)(=O)c1cccc(NC(=O)c2cc(-c3cccs3)nc3ccccc23)c1,-0.162
22,Cc1cc(NC(=O)CSc2nc3ccccc3c(=O)n2-c2ccccc2)no1,-0.161
23,Cc1nc(C)c(C(=O)NNS(=O)(=O)c2ccc([N+](=O)[O-])cc2)s1,-0.481

row,SMILES,z-score
1,COc1ccc(N2CC(C(=O)Nc3nnc(SCc4ccccn4)s3)CC2=O)cc1 (stereo not drawn),-0.304
2,COc1ccc(C(CNC(=O)CCOc2ccccc2)N(C)C)cc1 (stereo not drawn),-0.0296
3,C=CCc1cccc2cc(C(=O)OCC(=O)c3ccccc3)c(=O)oc12,0.222
4,O=C(COc1ccccc1-c1ccccc1)c1ccccc1,-0.207
5,COc1ccc(-c2nc3ccccc3c(=O)o2)cc1OC,-0.408
6,CC(Nc1ccc(Br)cc1)C(=O)N/N=C/c1ccccc1OCc1ccccc1 (stereo not drawn),-0.283
7,Cc1cc(C)cc(N(CC(=O)Nc2ccc(-c3nc4ccc(C)cc4s3)cc2)S(C)(=O)=O)c1,-0.143
8,O=C(Nc1ncc(Cc2cccc(C(F)(F)F)c2)s1)c1ccc(-c2cccc([N+](=O)[O-])c2)o1,0.182
9,Cc1cc(C)c(C#N)c(Sc2nnnn2-c2ccccc2)n1,-0.338
10,O=C(CSc1ccccn1)N1CCN(c2ccccc2)CC1,0.0291
11,COCCn1c(SCC(=O)NCc2ccc3c(c2)OCO3)nnc1-c1c[nH]c2ccccc12,-0.0146
12,O=c1c2c([nH]c3ccccc13)C(=C1CCCC1)CC2,-0.328
13,CCc1ccc(C(=O)COC(=O)c2cnccn2)cc1,0.13
14,CC(=O)Nc1cc(C(=O)N2CCN(C)CC2)ccc1Sc1ccc(C)cc1,-0.253
15,CC(C)(C)OC(=O)N/N=C/c1ccc(C(=O)O)cc1,-0.193
16,Clc1ccccc1OCc1nc(-c2ccncc2)no1,-0.364
17,CCOCC(=O)Nc1nc2ccc(OCC)cc2s1,-0.0823
18,Cc1[nH]n(-c2ccccc2)c(=O)c1-c1ccc(Cl)cc1,0.236
19,N#CNC(=Nc1cccc(F)c1)SCc1cccc(F)c1,-0.141
20,CSc1nnc2n(-c3ccccc3)c(=O)c3c4c(sc3n12)CCC4,-0.327
21,COc1ccc(C(=O)N/N=C/c2ccc(OC(=O)c3cccs3)cc2)cc1,-0.212
22,COc1cc(CC(=O)NCCc2ccc(S(N)(=O)=O)cc2)cc(OC)c1OC,0.334
23,Cc1nn(Cc2c(F)c(F)c(F)c(F)c2F)c(C)c1NC(=O)c1ccc(COc2ccccc2Cl)cc1,-0.141

row,SMILES,z-score
1,Cc1cc2cc(CNC(=O)c3ccc(S(=O)(=O)N(C)C)cc3)ccc2n1C,-0.0521
2,CC(Sc1ccc(Cl)cc1)C(=O)NCc1cccnc1 (stereo not drawn),-0.988
3,CCOC(=O)CSc1nc2c(sc3ccc([N+](=O)[O-])cc32)c(=O)n1Cc1ccco1,-0.436
4,Cc1ccc2nc(SCCCCOc3ccccc3)[nH]c2c1,-0.322
5,O=C(NCCc1ccccc1Cl)C1CCN(S(=O)(=O)c2cccs2)CC1,0.00999
6,Cc1cc(C)c(C#N)c(N2CCN(Cc3ccc4c(c3)OCO4)CC2)n1,-0.0896
7,CC(=O)c1c(C)[nH]c(C(=O)OCC(=O)NCCc2ccc(F)cc2)c1C,0.162
8,CC(C)n1c(SCC(=O)Nc2nc3ccccc3s2)nc2c1c(=O)n(C)c(=O)n2C,-0.303
9,C=CCn1c(SCc2csc(-c3ccc(Cl)cc3)n2)nnc1-c1ccccc1OC,-0.516
10,COc1ccc(C(=O)NNC(=S)NC(=O)c2ccco2)cc1,2.99
11,COCCOC(=O)C1=C(C)NC2=C(C(=O)CC(C)(C)C2)C1c1ccc(N(C)C)cc1 (stereo not drawn),-0.192
12,CCCC(=O)Nc1ccc(C(=O)NNC(=O)c2ccco2)cc1,-0.0576
13,Cc1sc2nc(C3CCCCC3)nc(SCC(=O)N3CC(=O)Nc4ccccc43)c2c1C,-0.0509
14,CC1(c2ccccc2)CC(C)(C)N2C(=O)C3(C(C#N)=C(N)Oc4cc(O)ccc43)c3cccc1c32 (stereo not drawn),-0.217
15,Cc1cc(C)cc(NC(=O)c2snc3c(=O)[nH]cnc23)c1,-0.739
16,CCn1c(SCC(=O)Nc2ccc(S(=O)(=O)Nc3ccccn3)cc2)nnc1-c1ccncc1,0.0215
17,COc1ccccc1CN(Cc1nc2ccccc2c(=O)[nH]1)C(=O)Nc1ccccc1C,-0.365
18,N#CCSc1nnc(C2CCCCC2)n1Cc1ccccc1,0.969
19,CC(C)c1ccc(/C=N/Nc2ccc(C(=O)O)cc2)cc1,-0.222
20,COc1cccc(N/C=C(\C#N)c2ccc(OCCCF)cc2)c1,0.135
21,O=c1nc2s/c(=C\c3ccco3)c(=O)n2nc1Cc1ccccc1,-0.176
22,COc1ccc(NC(=O)c2ccc(C(=O)c3cc(OC)ccc3OC)cc2)cc1,-0.232
